Measurements: PubChem BioAssay AID624171 (National Center for Advancing Translational Sciences (NCATS), 2012)
Out of some 410,000 compounds screened, about 1,200 (0.29%) were called active. The inconclusive results got no clear call from the source; some entries with a clear call stand among them for comparison. Calls come from the whole dose curve; as a rule, active = well fitted activation curve with a large enough effect; inconclusive = small, poorly fitted or top-dose-only effect; inactive = flat fitted curve, though single readings scatter. Where the call is inconclusive, the potency comes from a doubtful curve fit.
Potency is the fitted concentration of half-maximal effect; tags give direction and shape of the fitted curve.

Experiment: qHTS of Nrf2 Activators; note: nearly all actives have a fitted effect of over 65% in size; for activation: % of control where 0% means no effect
Conditions: AREc32 ARE-luciferase reporter (MCF7-derived line), luminescence, 24 h; series mostly up to 46.1 µM; activation: at the top concentration
Procedure, shortened: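 Luciferase luminescence (Steady-Glo, 30 min at room temperature) served as the read-out of ARE activation in AREc32 cells treated with compounds for 24 hr at 37 deg C.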
In the case of `COC1CC(C)C(OC)c2cc(O)cc(c2O)NC(=O)C(C)=CC=CC(C)C(OC(N)=O)C(C)=CC(C)C1OC` (configuration not stated), the Potency is reported as inconclusive: 35.5 µM [activator, single point]. For `N#CC1=C(N)Oc2n[nH]c(-c3cccs3)c2C1c1ccco1` (configuration not stated), the Potency was inconclusive: 28.2 µM [activator, single point]. With `COc1ccc(OCC(=O)N2CCN(Cc3c[nH]c4ccccc34)CC2)cc1` the Potency was inconclusive: 22.4 µM [activator, single point]. In the case of `CC(C)NS(=O)(=O)c1ccc(OCC(=O)N2CCN(Cc3ccc4c(c3)OCO4)CC2)c(Cl)c1`, the “activation” value is reported as inactive: 2.49%. For `Cc1cccc(N=C2c3cc([N+](=O)[O-])ccc3-c3c2cc([N+](=O)[O-])cc3[N+](=O)[O-])c1`, the Potency was inconclusive: 20 µM [activator, single point]. For `O=C(Cn1c(=O)n(CC2CS2)c2ccccc21)N1CCCCC1` (configuration not stated), the Potency was inconclusive: 17.8 µM [activator, single point]. With `CCOC(=O)C(NC(=O)CCl)(Nc1ccc(C(O)(C(=O)OCC)C(F)(F)F)cc1)C(F)(F)F` (configuration not stated) the Potency was inconclusive: 35.5 µM [activator, single point]. For `O=c1[nH]c(=O)n(Cc2ccco2)c(O)c1C=NCc1ccco1`, the Potency was inconclusive: 11.2 µM [activator, partial curve]. In the case of `COc1ccc(NS(=O)(=O)c2cc(N=Nc3c(O)[nH]c(=O)[nH]c3=O)ccc2Cl)cc1`, the Potency is reported as inconclusive: 22.4 µM [activator, single point]. With `Cc1ccc(-n2c(/C=C/c3ccccn3)nc3ccccc3c2=O)cc1` the “activation” value was inactive: 0.313%. For `O=C(O)c1ccc([N+](=O)[O-])c([N+](=O)[O-])c1`, the Potency was inconclusive: 10 µM [activator, partial curve]. For `Cn1cc(NC(=O)CCl)cn1`, the Potency was inconclusive: 25.1 µM [activator, single point]. With `COC(=O)C1=C(c2ccc(F)cc2OCc2ccccc2)C[C@@H]2CC[C@H]1N2C(=O)NCc1ccc([N+](=O)[O-])cc1` the “activation” value was inactive: 1.1%. In the case of `O=c1c2ccccc2nc(/C=C/c2ccccc2)n1-c1ccccc1O`, the Potency is reported as inconclusive: 20 µM [activator, single point]. In the case of `O=C(NC1(C(F)(F)F)Oc2ccccc2O1)N1CCC2(CC1)OCCO2`, the Potency is reported as inconclusive: 20 µM [activator, single point]. For `O=C(C(=C1N(Cc2ccc(Cl)nc2)CCN1Cc1ccc(Cl)nc1)[N+](=O)[O-])C(Cl)Cl`, the Potency was inconclusive: 15.8 µM [activator, single point]. For `CN(C)c1ccc(C=C2C(=O)NC(=O)NC2=O)cc1[N+](=O)[O-]`, the “activation” value was inactive: -0.257%. With `O=C(CCN1CCN(c2ccccc2)CC1)c1ccc(Br)cc1` the Potency was inconclusive: 28.2 µM [activator, single point]. In the case of `O=C1NC(=O)N(Cc2ccccc2)C(=O)/C1=C\C=C\c1ccco1`, the Potency is reported as inconclusive: 31.6 µM [activator, single point]. For `C=CCN1C(=O)/C(=C/c2cccs2)C(=O)NC1=S`, the “activation” value was inactive: 0.449%. With `O=C(/C=C/c1ccc2c(c1)OCO2)c1c(O)n(CCc2ccccc2)c(=O)[nH]c1=O` the Potency was inconclusive: 6.31 µM [activator, partial curve, poor fit]. For `CCOC(=O)c1c(-n2c(C)cc(C=C3C(=O)NC(=O)NC3=O)c2C)sc2c1CCCC2`, the “activation” value was inactive: -0.734%. With `CC(C)(C)N1CC(C(=O)c2ccccc2)C1c1ccccc1` (configuration not stated) the Potency was inconclusive: 22.4 µM [activator, single point]. With `COc1cc(C)c(CN2CCN(c3ccccc3)CC2)cc1C` the “activation” value was inactive: -0.413%. With `CNC(C)C#Cc1ccc2c(=O)c3ccccc3oc2c1` (configuration not stated) the Potency was inconclusive: 11.2 µM [activator, partial curve, poor fit]. For `CCN(CC)c1ccc(N=Cc2c(O)[nH]c(=O)[nH]c2=O)cc1`, the Potency was inconclusive: 22.4 µM [activator, partial curve, poor fit]. In the case of `CC(=CCOc1ccc2ccc(=O)oc2c1)C1=CC(=O)C(C)(C)O1`, the Potency is reported as inconclusive: 5.01 µM [activator, full curve]. With `COc1ccc(OC)c(N2Cc3ccccc3C2=N)c1` the “activation” value was inactive: -0.368%. For `COCOC1CCC2C3CCC4=CC(=O)CCC4=C3C=CC12C` (configuration not stated), the Potency was inconclusive: 22.4 µM [activator, partial curve, poor fit]. With `COc1ccc2ccc(O)c(CN3CC=C(c4ccccc4)CC3)c2c1` the Potency was inconclusive: 31.6 µM [activator, single point]. For `c1ccc2c(CN3CCCCCC3)c[nH]c2c1`, the Potency was inconclusive: 22.4 µM [activator, single point]. For `Cc1ccc(N=Nc2c(O)[nH]c(=O)[nH]c2=O)cc1S(=O)(=O)Nc1ccc(Br)cc1`, the Potency was inconclusive: 20 µM [activator, single point]. With `Clc1cccc(/C=N\Nc2nccs2)c1` the Potency was inconclusive: 2.82 µM [activator, full curve, poor fit]. For `COC(=O)C1=C(C(=O)OC)SC2(S1)C(C(=O)OC)=C(C(=O)OC)Sc1c2ssc1=O`, the Potency was inconclusive: 2.51 µM [activator, partial curve, poor fit]. In the case of `O=C(Nc1ccc(Cl)cc1)O/N=C(\c1ccccc1)c1ccccn1`, the “activation” value is reported as inactive: -0.404%. In the case of `Cn1c(=O)oc2cc(NC(=O)CCl)ccc21`, the Potency is reported as active: 7.94 µM. With `O=C(/C=C/c1ccccc1)C1C(=O)c2ccccc2C1=O` the Potency was inconclusive: 11.2 µM [activator, partial curve, poor fit]. In the case of `O=C1NC(=O)N(Cc2ccc(F)cc2)C(=O)/C1=C\C=C\c1ccco1`, the Potency is reported as inconclusive: 17.8 µM [activator, single point]. In the case of `C[C@]12CC[C@@H]3c4ccc(O)c(O)c4CC[C@H]3[C@@H]1CC[C@@H]2O`, the Potency is reported as inconclusive: 31.6 µM [activator, single point]. For `O=C1NC(=O)N(Cc2ccco2)C(=O)/C1=C/C=C/c1ccco1`, the Potency was inconclusive: 22.4 µM [activator, single point]. With `CC(=O)Nc1cc(Cl)c(N=Cc2ccc(O)cc2O)cc1Cl` the Potency was inconclusive: 31.6 µM [activator, single point]. In the case of `O=C(CCc1ccc(O)cc1)N1C[C@H]2C[C@@H](C1)c1cccc(=O)n1C2`, the “activation” value is reported as inactive: -1.05%. For `Cc1ccc2c(c1)C=CC(C#N)N2C(=O)Oc1ccccc1` (configuration not stated), the Potency was inconclusive: 22.4 µM [activator, single point]. In the case of `C[C@@H]1C[C@@H]2O[C@H]2/C=C\C=C\C(=O)Cc2c(Cl)c(O)cc(O)c2C(=O)O1`, the Potency is reported as inconclusive: 3.16 µM [activator, partial curve, poor fit]. With `O=C(CCl)Nc1sccc1C(=O)c1ccccc1` the Potency was inconclusive: 17.8 µM [activator, single point]. In the case of `COc1cc(/C=C/C(=O)c2c(O)n(CCc3ccccc3)c(=O)[nH]c2=O)ccc1O`, the Potency is reported as inconclusive: 15.8 µM [activator, single point]. With `COC(=O)C1=C(c2cccc(OCc3ccccc3)c2)C[C@@H]2CC[C@H]1N2C(=O)NCc1ccc(Cl)cc1` the “activation” value was inactive: -1.06%. With `O=C(CSc1nnc(NC(=O)c2cccc(F)c2)s1)NCc1ccco1` the Potency was inconclusive: 3.98 µM [activator, partial curve, poor fit]. For `CCN(CC)C1=NC(=[N+](CC)CC)c2ccccc21`, the “activation” value was inactive: -0.24%. With `O=C(c1ccccc1)N1CCC2(CC1)OCCO2` the “activation” value was inactive: -0.693%. With `C[C@]12CC[C@@H](O)CC1=CCC1C2CC[C@@]2(C)C1C[C@@H](F)[C@@H]2O` (some centres not stated) the “activation” value was inactive: 0.118%. For `c1ccc2c(CNC3CCCCC3)c[nH]c2c1`, the Potency was inconclusive: 25.1 µM [activator, single point]. In the case of `COc1cc2c(cc1OC)CN(c1ccc([N+](=O)[O-])c(C(F)(F)F)c1)CC2`, the Potency is reported as inconclusive: 35.5 µM [activator, single point]. In the case of `Cn1c(O)c(N=Nc2ccc(S(=O)(=O)N3CCOCC3)cc2)c(=O)n(C)c1=O`, the Potency is reported as inconclusive: 6.31 µM [activator, full curve, poor fit]. For `CCOc1ccc(CCNC(=O)c2ccc(-n3c(C)cc4c3CCCC4)cc2)cc1OCC`, the Potency was inconclusive: 12.6 µM [activator, single point]. With `COC(=O)c1ccc(CN2CCN(Cc3ccccc3)CC2)cc1` the “activation” value was inactive: -0.015%. With `c1ccc(CCCN2CCN(CCOC(c3ccccc3)c3ccccc3)CC2)cc1` the “activation” value was inactive: -0.512%.
